Measurements: PubChem BioAssay AID624296 (National Center for Advancing Translational Sciences (NCATS), 2012)
The whole screen tested about 350,000 compounds, of which about 9,900 (2.8%) were called active. This list was built around the results that the source calls inconclusive (neither active nor inactive); the mix of calls is not that of the screen. Calls come from the whole dose curve; as a rule, active = well fitted activation curve with a large enough effect; inconclusive = small, poorly fitted or top-dose-only effect; inactive = no such curve, though single readings can be large or run the other way. Potencies of inconclusive entries are left out as doubtful fits.
Potency is the fitted concentration of half-maximal effect; tags give direction and shape of the fitted curve.

Assay: A quantitative high throughput screen for small molecules that induce DNA re-replication in MCF 10a normal breast cells. For activity, positive = re-replication: % of control where 0% means no effect. Note: nearly all actives have a fitted effect of over 50% in size.
Conditions: MCF 10A DNA re-replication, Hoechst nuclear intensity, 48 h; activity, positive = re-replication: at 46.1 µM (top of the series)
With O=C1C(=O)N(C2CCS(=O)(=O)C2)C(c2cccc(O)c2)/C1=C(/O)c1ccc(Cl)cc1 (stereo not drawn) the “activity, positive = re-replication” value was inactive: 5.11%. With Cc1sccc1/C=N/NC(=O)c1cccc2ccccc12 the Potency was inconclusive [activator, single point]. For N#C/C(=C\C=C\c1ccccc1[N+](=O)[O-])C(=O)NC1CCCCC1, the Potency was active: 9.2 µM. In the case of CN(C)C(=O)CCc1ccc2c3c([nH]c2c1)[C@]1(CCC2CCCC2)[C@@H](C(=O)N2CCOCC2)C[C@H](CC(=O)NCCCn2ccnc2)C(=O)N1CC3, the Potency is reported as inconclusive [activator, single point]. In the case of COc1ccc(-c2nn(CCC#N)cc2C(=O)Nc2cccc(C(=O)O)c2)cc1[N+](=O)[O-], the “activity, positive = re-replication” value is reported as inactive: -10.9%. For CC(C)C[C@H]1CN=C(Nc2ccccc2)N1CC1CCC(C(C)(C)C)CC1 (stereo partly drawn), the Potency was inconclusive [activator, single point]. For COc1cc(OC)cc(-c2nc3ccccc3c(=O)n2OC(=O)c2ccccc2C)c1, the Potency was active: 16.4 µM. For COC(=O)c1ccccc1NC(=O)c1nc(S(=O)(=O)Cc2ccccc2)ncc1Cl, the Potency was inconclusive [activator, partial curve, poor fit]. With O=C(CSc1nc(-c2ccccc2Cl)ns1)c1ccc(Cl)cc1 the Potency was inconclusive [activator, partial curve, poor fit]. For CC(C)Cn1c(CN(C)Cc2ccccc2)nc2c1c(=O)n(C)c(=O)n2C, the “activity, positive = re-replication” value was inactive: 12.6%. In the case of CC(=O)Nc1ccc2[nH]c3ccccc3c2c1, the “activity, positive = re-replication” value is reported as inactive: -11.8%. In the case of CC(C)N(Cc1nccn1C)C(=O)c1ccc2oc(CCCc3ccccc3)nc2c1, the Potency is reported as inconclusive [activator, partial curve, poor fit]. For c1ccc(-c2nnc(SCC3CCCCO3)nc2-c2ccccc2)cc1 (stereo not drawn), the Potency was inconclusive [activator, partial curve, poor fit]. In the case of CCOc1cc2[nH]c(=S)n(CCN3CCCCC3CC)c(=O)c2cc1OCC (stereo not drawn), the Potency is reported as inconclusive [activator, single point]. With COc1ccc(-c2sc3ccccc3c2-c2ccc(OCCN3CCCCC3)cc2)cc1 the Potency was inconclusive [activator, full curve, poor fit]. With O=C(Nc1ccncc1)c1cc(-c2cccc(Br)c2)nc2ccccc12 the Potency was active: 16.4 µM. In the case of CC(C)C(NC(=O)c1ccc(C(C)(C)C)cc1)C(=O)Nc1ccc(N2CCOCC2)cc1 (stereo not drawn), the Potency is reported as inconclusive [activator, full curve, poor fit]. In the case of CC(=O)[C@@H]1[C@@H](C(=O)c2ccccc2)[C@]2(C(=O)Nc3ccccc32)[C@H]2C=Cc3cc(F)ccc3N12, the Potency is reported as active: 20.6 µM.
